Experimental data taken from the supplement of paper PMC3334620.
The full ranking holds about 33,000 sequences; the median of “E-score (-0.5 to 0.5)” is about -0.054, and the highest 2% start at about 0.35. The list shows a part of the results.

Target: T1, Stb5 (UniProt P38699)
T1 sequence: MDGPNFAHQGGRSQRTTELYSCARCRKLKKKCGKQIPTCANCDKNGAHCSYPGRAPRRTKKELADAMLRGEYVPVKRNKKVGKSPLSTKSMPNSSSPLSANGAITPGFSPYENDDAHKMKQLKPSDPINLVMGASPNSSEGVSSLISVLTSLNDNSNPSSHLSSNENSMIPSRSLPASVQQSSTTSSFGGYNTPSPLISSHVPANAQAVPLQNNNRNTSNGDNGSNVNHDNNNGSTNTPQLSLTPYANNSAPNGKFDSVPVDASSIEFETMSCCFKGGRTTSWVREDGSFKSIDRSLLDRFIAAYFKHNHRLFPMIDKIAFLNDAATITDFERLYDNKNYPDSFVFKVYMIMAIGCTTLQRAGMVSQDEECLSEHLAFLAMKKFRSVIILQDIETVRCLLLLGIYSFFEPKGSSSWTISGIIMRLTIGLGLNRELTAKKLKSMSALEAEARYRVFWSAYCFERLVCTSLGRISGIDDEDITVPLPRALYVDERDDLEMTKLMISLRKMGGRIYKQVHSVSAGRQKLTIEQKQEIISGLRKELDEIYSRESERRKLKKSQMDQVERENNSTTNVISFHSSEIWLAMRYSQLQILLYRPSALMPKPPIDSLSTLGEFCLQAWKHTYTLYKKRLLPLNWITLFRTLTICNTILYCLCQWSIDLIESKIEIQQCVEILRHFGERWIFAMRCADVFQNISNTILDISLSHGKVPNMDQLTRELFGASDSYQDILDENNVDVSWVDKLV
Experiment: PBM E-score (8-mer binding enrichment) (E-score (-0.5 to 0.5)); higher = stronger / more preferred TF binding; most listed sequences are background and not binding sites
Conditions: protein concentration: 200 nM; construct: GST-full length
Method: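 Universal 'all 10-mer' protein binding microarrays (Agilent AMADID 015681) probed with GST-tagged S. cerevisiae TFs (full-length or DBD) made by in vitro transcription/translation (PURExpress), about 100-200 nM. Bound TF was detected with fluorescent anti-GST. Each ungapped 8-mer (which stands for itself and its reverse complement) is scored by the PBM enrichment score (E-score), a modified Wilcoxon-Mann-Whitney statistic from -0.5 to +0.5, computed with the Universal PBM Analysis Suite. Scale: above 0.35 generally sequence-specific binding.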

Sequence	PBM E-score
CGCGTCGA	0.073
AAAGGCAC	0.0273
ACGTACGT	-0.434
ACTACTCA	-0.24
CGGCCTAG	-0.00214
CTAAAACC	0.234
ACCGAGCG	0.32
CTGGCTTA	-0.23
GGTTCGCA	-0.0754
AATTTTAA	0.246
ATAGCCAA	-0.0873
GCGGTGCA	0.259
AATGAGTA	0.0524
ATTAAATG	0.0899
CTGTACCC	0.0534
GGTAAAGA	0.102
CGTCTGAA	-0.211
AAATGCCC	0.0775
ACCTTCCG	0.0231
CTATTAGC	0.00248
ACGATTTG	-0.225
AACTGGGT	-0.161
CATTTTCA	-0.147
ACACTCCC	-0.0602
CAGGAATA	-0.12

Sequence	PBM E-score
GGTCCGTA	0.332
TTCCGAAA	0.203
CCAAGTTA	-0.107
ATTTAATC	0.169
TAAGTACA	-0.153
GGGTCCAA	0.0197
CGGACCTA	0.466
GGAATAAA	0.0613
ATCATAAA	-0.141
GGATGGAA	-0.208
AATGGCCT	0.103
ATCAGCAG	-0.0861
CACTGGAG	-0.178
AGGAGCCT	-0.305
ACAGCGTC	0.0575
GCTTGGGA	-0.136
ACATCCGG	0.322
CGGACGCC	0.205
ACATAGCA	0.0503
TAGGAATA	0.0605
ACTGCTCG	-0.224
CTATTTAA	0.0779
AGTCTGAG	-0.222
ATCGCGGG	0.206
AGTTAAGG	0.0217

Sequence	PBM E-score
ATTTTATG	0.195
CTACGTGC	-0.122
CCAGTACG	-0.0992
AGACATAA	-0.0193
GCAGAAGA	-0.0766
GTCTTTAA	-0.0538
CCGTATAG	0.0283
TTCAAGAA	0.0588
CCGAATGC	0.178
TCCTAGCA	-0.00686
GGTTGTAA	0.0915
CGGGCCGA	0.327
GCGGGGAA	0.3
CCTTCCCG	-0.125
GAAGGCCC	0.226
CTGCCAAG	-0.158
AGAAAAAG	-0.0433
AGTCAGGA	-0.0969
TCGAGAAA	-0.0657
AGGGAAGC	-0.246
AGACTGAT	-0.0994
GGTCGGTA	0.319
CGGGGGCC	0.165
CACTCTGC	-0.142
GTCCGTGA	0.146

Sequence	PBM E-score
CGTCAAGC	0.0231
CAAGAAGG	-0.193
AATGTTCA	-0.142
GTGGACCA	-0.223
GATTGCCC	0.00611
CGTTTGTC	0.117
ACTGCTTC	0.0548
CTAACCAC	-0.0805
AGGACTAG	-0.228
GATGCACC	0.0425
AGTCCATC	-0.0854
TATCGGAA	0.221
CTAGCGAC	-0.216
AATCCCAG	-0.179
GTGCCCTA	-0.101
GTCGCTTA	-0.00449
CGTCGCGA	0.0788
AACATGAC	-0.175
ACCTGGCT	-0.221
TCGGCTCA	0.0985
GCCATGGA	-0.137
GAGTACGA	0.00642
GCAGTATA	0.0856
CACTCACA	-0.062
AGGTCCAT	-0.0608

Sequence	PBM E-score
TCGCTAAA	0.0383
ACTGTTCA	-0.149
CGATATCA	0.00984
GCCGGTGA	0.316
AATCGCCG	0.407
CACCGTCC	0.407
ATTATATA	0.0402
AGGCCGCA	0.231
CCGACACA	0.27
AATTTCGT	-0.0517
AGATAAAA	0.0479
GACACATA	0.0096
AGGAACTC	-0.162
AGTAACGA	0.0155
AACGCAGC	0.00183
AAGGTAGT	-0.0681
CGCTTGAG	-0.0132
AAGCGACA	0.0208
ACTCATCC	-0.232
AAACAGCC	0.0135
ATGATTGG	-0.0212
GCTACGAA	-0.0407
ATCAGGCA	-0.181
ACCTCTCT	-0.0963
AGCCTGAC	-0.142

Sequence	PBM E-score
GCATGTAA	-0.0745
CACATTAA	-0.149
TAGATCAA	-0.267
CAATCTGG	-0.148
AAAGTGAT	-0.13
GACCCACC	0.00543
AACGCTCC	-0.068
GATACCCA	-0.19
ACTAAAGC	0.24
AAAGCGTA	-0.0834
GCACGATA	-0.00583
AGAAAACG	0.102
GGACTCCA	0.086
CCCCATGA	-0.159
CCATCAAG	-0.259
ACCATCCA	-0.118
CACGTATA	0.0139
ATTAAGCG	0.0447
CCTGGGCA	-0.341
ACGTCTAT	-0.122
CGTCCGGA	0.153
GGCAAACC	-0.00112
AGCGTTCA	-0.161
GCGGTGAA	0.345
AGCTATGA	-0.168

Sequence	PBM E-score
AAATCTGA	-0.048
CATCGGAC	0.34
TAACCTCA	-0.211
CATACCTC	0.0672
GCGTTGTA	-0.211
CCATGAAA	-0.0823
CTAGCCAC	-0.224
ACGGATCT	0.288
GTGGGCGA	-0.243
GTATTCGA	-0.145
CCGGAGAC	0.22
ACAGACCA	-0.239
ATAGAACC	0.268
ACTAGTAT	-0.0145
CAGAGGAC	-0.186
ACAAGGGT	-0.169
GGAACTCA	-0.106
AGTAGCAC	-0.093
TCATGGAA	-0.226
ACATGGGT	-0.243
TCATAGGA	-0.132
CTGACCGC	0.194
